The list shows a part of the results.
Tests used:
HSkMC = human skeletal muscle cells; experiment: cytotoxicity call (relative viability < 0.9); settings: 10 µM
HepG2 = experiment: cytotoxicity call (relative viability < 0.9); settings: 10 µM
S. aureus RN4220 = experiment: growth inhibition call (relative growth <= 0.2); settings: 50 µM

C[C@@H]1CCCCO[C@H](CN(C)C(=O)Nc2ccc3c(c2)OCO3)[C@@H](C)CN([C@H](C)CO)C(=O)c2cc(NC(=O)Nc3ccc4c(c3)OCO4)ccc2O1
inactive: cytotoxicity call (HSkMC) | cytotoxicity call (HepG2) | growth inhibition call (S. aureus RN4220)

CCN(CCO)CCCOc1ccc2c(Nc3cc(CC(=O)Nc4cccc(F)c4)n[nH]3)ncnc2c1
inactive: cytotoxicity call (HSkMC) | cytotoxicity call (HepG2) | growth inhibition call (S. aureus RN4220)

C[C@@H]1CCCCO[C@H](CN(C)C(=O)NC2CCCCC2)[C@H](C)CN([C@@H](C)CO)C(=O)c2cc(NC(=O)CCC(F)(F)F)ccc2O1
inactive: cytotoxicity call (HSkMC) | cytotoxicity call (HepG2) | growth inhibition call (S. aureus RN4220)

C[C@@H]1CCCCO[C@H](CN(C)S(=O)(=O)c2cccs2)[C@H](C)CN([C@@H](C)CO)C(=O)c2cc(NC(=O)CCC(F)(F)F)ccc2O1
inactive: cytotoxicity call (HSkMC) | cytotoxicity call (HepG2) | growth inhibition call (S. aureus RN4220)

C=C(C)/C=C1/C=CC(=O)C(C)=C1
inactive: cytotoxicity call (HSkMC) | cytotoxicity call (HepG2) | growth inhibition call (S. aureus RN4220)

C[C@H]1CN([C@@H](C)CO)C(=O)Cc2cc(NC(=O)c3ccncc3)ccc2O[C@H]1CN(C)Cc1ccc2c(c1)OCO2
inactive: cytotoxicity call (HSkMC) | cytotoxicity call (HepG2) | growth inhibition call (S. aureus RN4220)

COc1ccccc1S(=O)(=O)N1C[C@H](O)COC[C@H]2O[C@@H](CC(=O)O)CC[C@@H]21
inactive: cytotoxicity call (HSkMC) | cytotoxicity call (HepG2) | growth inhibition call (S. aureus RN4220)

Cc1cc(C(=O)Nc2cccc3c2O[C@H](CN(C)Cc2ccc4c(c2)OCO4)[C@@H](C)CN([C@@H](C)CO)C3=O)n(C)n1
inactive: cytotoxicity call (HSkMC) | cytotoxicity call (HepG2) | growth inhibition call (S. aureus RN4220)

C[C@@H]1CN([C@@H](C)CO)C(=O)c2cc(NC(=O)Nc3ccc4c(c3)OCO4)ccc2O[C@@H](C)CCCCO[C@@H]1CN(C)Cc1ccc(C(F)(F)F)cc1
inactive: cytotoxicity call (HSkMC) | cytotoxicity call (HepG2) | growth inhibition call (S. aureus RN4220)

O=C(C[C@H]1CC[C@H]2[C@@H](COC[C@H](O)CN2C(=O)c2cccnc2)O1)NCc1ccc(-c2ccccc2)cc1
inactive: cytotoxicity call (HSkMC) | cytotoxicity call (HepG2) | growth inhibition call (S. aureus RN4220)

Cc1cc(C(=O)Nc2cccc3c2O[C@@H](CN(C)C(=O)Nc2c(C)noc2C)[C@H](C)CN([C@H](C)CO)C3=O)n(C)n1
inactive: cytotoxicity call (HSkMC) | cytotoxicity call (HepG2) | growth inhibition call (S. aureus RN4220)

Cn1cnc(S(=O)(=O)N[C@H]2CC[C@H](CC(=O)NCC3CC3)O[C@H]2CO)c1
inactive: cytotoxicity call (HSkMC) | cytotoxicity call (HepG2) | growth inhibition call (S. aureus RN4220)

CSc1nc(-c2ccccc2)cc(-c2cccs2)c1C#N
inactive: cytotoxicity call (HSkMC) | cytotoxicity call (HepG2) | growth inhibition call (S. aureus RN4220)

CN1CCN(C(=O)C[C@H]2C=C[C@@H](NC(=O)c3ccc4c(c3)OCO4)[C@H](CO)O2)CC1
inactive: cytotoxicity call (HSkMC) | cytotoxicity call (HepG2) | growth inhibition call (S. aureus RN4220)

C[C@H](O)C#Cc1cnc2c(c1)C(=O)N([C@@H](C)CO)C[C@@H](C)[C@H](CN(C)C(=O)Nc1ccc(C(F)(F)F)cc1)O2
inactive: cytotoxicity call (HSkMC) | cytotoxicity call (HepG2) | growth inhibition call (S. aureus RN4220)

COc1ccc(S(=O)(=O)N(C)C[C@H]2Oc3ncc(C#CC4(O)CCCC4)cc3C(=O)N([C@H](C)CO)C[C@@H]2C)cc1
inactive: cytotoxicity call (HSkMC) | cytotoxicity call (HepG2) | growth inhibition call (S. aureus RN4220)

COc1ccc(S(=O)(=O)Nc2ccc3c(c2)C(=O)N([C@H](C)CO)C[C@@H](C)[C@H](CN(C)C(=O)Nc2ccc(C(F)(F)F)cc2)OCCCC[C@@H](C)O3)cc1
inactive: cytotoxicity call (HSkMC) | cytotoxicity call (HepG2) | growth inhibition call (S. aureus RN4220)

Cc1ccc(S(=O)(=O)N(C)C[C@@H]2Oc3ccc(NC(=O)Cn4cnnn4)cc3C(=O)N([C@H](C)CO)C[C@H]2C)cc1
inactive: cytotoxicity call (HSkMC) | cytotoxicity call (HepG2) | growth inhibition call (S. aureus RN4220)

C[C@@H]1CCCCO[C@H](CN(C)Cc2ccc(C(=O)O)cc2)[C@@H](C)CN([C@@H](C)CO)C(=O)c2cc(NC(=O)C3CCCCC3)ccc2O1
inactive: cytotoxicity call (HSkMC) | cytotoxicity call (HepG2) | growth inhibition call (S. aureus RN4220)

C[C@H]1CCCCO[C@@H](CN(C)Cc2ccc(C(F)(F)F)cc2)[C@@H](C)CN([C@@H](C)CO)C(=O)c2cc(NS(=O)(=O)c3cccs3)ccc2O1
inactive: cytotoxicity call (HSkMC) | cytotoxicity call (HepG2) | growth inhibition call (S. aureus RN4220)

O=C(CCCCCC(=O)N/N=C/[C@H](O)[C@@H](O)[C@H](O)[C@H](O)CO)NO
inactive: cytotoxicity call (HSkMC) | cytotoxicity call (HepG2) | growth inhibition call (S. aureus RN4220)

CN(C)CC(=O)N1[C@@H]2c3ccc(-c4cccnc4)c(=O)n3C[C@H]1[C@H](CO)[C@H]2C(=O)NC1CCC1
inactive: cytotoxicity call (HSkMC) | cytotoxicity call (HepG2) | growth inhibition call (S. aureus RN4220)

C[C@@H]1CN([C@@H](C)CO)S(=O)(=O)c2ccc(C#CCN(C)C)cc2O[C@H]1CN(C)Cc1cccnc1
inactive: cytotoxicity call (HSkMC) | cytotoxicity call (HepG2) | growth inhibition call (S. aureus RN4220)

C[C@H](CO)N1C[C@H](C)[C@@H](CN(C)S(=O)(=O)c2ccc(Cl)cc2)OCCCC[C@H](C)Oc2ccc(NC(=O)Nc3ccc4c(c3)OCO4)cc2C1=O
inactive: cytotoxicity call (HSkMC) | cytotoxicity call (HepG2) | growth inhibition call (S. aureus RN4220)

— the antibiotic and cytotoxicity screens of Wong et al. (2023)
